This is one part of the list. Repeats are few or missing, and single values can be far off.
Test system: SkMel5
Experiment: cell count relative to DMSO control; melanoma cells; higher = more viable cells
Conditions: library dose: low library concentration; 72 h; first compound 0.4 µM
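Note: cell number obtained by counting DAPI-stained nuclei in high-throughput microscope images with image analysis software, screen run in 1,536-well plates.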

C[C@@H](N)c1ccc(C(=O)Nc2ccnc3[nH]ccc23)cc1 + COc1cc(Nc2ncc(F)c(Nc3ccc4c(n3)NC(=O)C(C)(C)O4)n2)cc(OC)c1OC [Tamatinib] (partner dose 0.4 µM) was tested. Which cell count did it give?
Its cell count is 79.7%.

How did the cell count turn out when Cn1sc(=O)n(Cc2ccccc2)c1=O + CCc1ccc(CCOc2ccc(CC3SC(=O)NC3=O)cc2)nc1 [pioglitazone] (partner dose 2 µM) was run?
Its cell count is 98.7%.

Cn1sc(=O)n(Cc2ccccc2)c1=O + O=C(O)C(=O)Nc1sc2c(c1C(=O)O)CCNC2 [TCS401] (partner dose 1.66667 µM) was tested. Which cell count did it give?
The cell count was 99.3%.

CCCCCCCCCCCCCCCCCCOP(=O)([O-])OC1CC[N+](C)(C)CC1 [Perifosine] + O=S(=O)(c1ccccc1)N(CC(F)(F)F)c1ccc(C(O)(C(F)(F)F)C(F)(F)F)cc1 [T0901317] (partner dose 1.4 µM) was tested. Which cell count did it give?
Its cell count is 88.5%.

CCCCCCCCCCCCCCCCCCOP(=O)([O-])OC1CC[N+](C)(C)CC1 [Perifosine] + N#Cc1c(O)c2c(-c3ccc(-c4ccccc4O)cc3)csc2[nH]c1=O [A769662] (partner dose 2 µM) was tested. Which cell count did it give?
The cell count was 95.5%.

For C[C@@H](N)c1ccc(C(=O)Nc2ccnc3[nH]ccc23)cc1 + C[C@@H]1CCN(C(=O)CC#N)C[C@@H]1N(C)c1ncnc2[nH]ccc12 [CP690550] (partner dose 1 µM), which cell count is on record?
The cell count was 97.2%.

For Cn1sc(=O)n(Cc2ccccc2)c1=O + Oc1nc(-c2ccc(C(F)(F)F)cc2)nc2c1CSCC2 [XAV939] (partner dose 2 µM), which cell count is on record?
The cell count was 79.3%.
